Reference: the antibiotic and cytotoxicity screens of Wong et al. (2023)
This is one part of the list.

Legend:
HSkMC = human skeletal muscle cells; experiment: cytotoxicity call (relative viability < 0.9); settings: 10 µM
HepG2 = experiment: cytotoxicity call (relative viability < 0.9); settings: 10 µM
S. aureus RN4220 = experiment: growth inhibition call (relative growth <= 0.2); settings: 50 µM

Row | SMILES | cytotoxicity call (HSkMC) | cytotoxicity call (HepG2) | growth inhibition call (S. aureus RN4220)
1 | C[C@H](CO)N1C[C@H](C)[C@@H](CN(C)C(=O)Cc2ccccn2)Oc2ncc(C#CC3CCCCC3)cc2C1=O | inactive | inactive | inactive
2 | C[C@@H]1CCCCO[C@@H](CN(C)C(=O)NC2CCCCC2)[C@H](C)CN([C@@H](C)CO)C(=O)c2cc(NC(=O)Cc3ccccc3)ccc2O1 | inactive | inactive | inactive
3 | CN1CCN(C(=O)C[C@H]2C=C[C@H](NC(=O)Cc3ccccn3)[C@H](CO)O2)CC1 | inactive | inactive | inactive
4 | Cc1cc(C)n(CCNC(=O)[C@H]2CCCN(c3cccc4c3C(=O)N(Cc3ccc5c(c3)OCO5)C4=O)C2)n1 | inactive | inactive | inactive
5 | C[C@@H]1CN([C@H](C)CO)C(=O)c2cc(NC(=O)C3CCCCC3)ccc2O[C@@H](C)CCCCO[C@@H]1CN(C)Cc1ccncc1 | inactive | inactive | inactive
6 | O=C(Cc1ccccn1)NCC[C@H]1CC[C@@H](NC(=O)CN2CCOCC2)[C@H](CO)O1 | inactive | inactive | inactive
7 | C[C@@H]1CN([C@@H](C)CO)C(=O)Cc2cc(NS(=O)(=O)c3cn(C)cn3)ccc2O[C@@H]1CN(C)C(=O)NC1CCCCC1 | inactive | inactive | inactive
8 | COc1cccc(S(=O)(=O)N[C@@H]2C=C[C@@H](CC(=O)NC3CCC3)O[C@H]2CO)c1 | inactive | inactive | inactive
9 | O=c1[nH]ccn(-c2ccccc2)c1=O | inactive | active | inactive
10 | CC(C)CC#Cc1ccc2c(c1)O[C@H](CN(C)C(=O)c1cccnc1)[C@@H](C)CN([C@H](C)CO)S2(=O)=O | inactive | inactive | inactive
11 | C[C@@H]1CN([C@@H](C)CO)C(=O)c2cccc(NC(=O)c3nc4ccccc4s3)c2O[C@@H]1CN(C)C(=O)Nc1ccc(F)cc1 | inactive | active | inactive
12 | C[C@H](CO)N1C[C@H](C)[C@H](CN(C)C(=O)NC2CCCCC2)OCCCC[C@H](C)Oc2ccc(NS(=O)(=O)c3ccc(F)cc3)cc2C1=O | inactive | inactive | inactive
13 | Cc1noc(C)c1NC(=O)N(C)C[C@@H]1OCCCC[C@H](C)Oc2ccc(NC(=O)CCC(F)(F)F)cc2C(=O)N([C@H](C)CO)C[C@H]1C | inactive | inactive | inactive
14 | C[C@H]1CN([C@@H](C)CO)C(=O)c2cccc(NC(=O)c3ccc(-c4nccs4)cc3)c2O[C@H]1CN(C)Cc1ccccc1 | inactive | inactive | inactive
15 | Cc1ccc(S(=O)(=O)N(C)C[C@H]2Oc3ccc(NC(=O)CCCN(C)C)cc3C(=O)N([C@@H](C)CO)C[C@@H]2C)cc1 | inactive | inactive | inactive
16 | C[C@@H]1CCCCO[C@@H](CN(C)S(=O)(=O)c2ccccc2)[C@@H](C)CN([C@@H](C)CO)C(=O)c2cc(NC(=O)NC3CCCCC3)ccc2O1 | inactive | inactive | inactive
17 | Cc1ccc(S(=O)(=O)Nc2ccc3c(c2)C(=O)N([C@@H](C)CO)C[C@H](C)[C@@H](CN(C)CC2CC2)O3)cc1 | inactive | inactive | inactive
18 | C[C@@H]1CCCCO[C@H](CN(C)C(=O)C2CCCCC2)[C@H](C)CN([C@@H](C)CO)C(=O)c2cc(NC(=O)c3ccccc3)ccc2O1 | inactive | inactive | inactive
19 | COc1cccc(S(=O)(=O)N2C[C@@H](O)COC[C@H]3O[C@H](CC(=O)N4CCN(C)CC4)CC[C@@H]32)c1 | inactive | inactive | inactive
20 | O=C(CCCCCNC(=O)OCCCCO[C@H]1C[C@@H](c2ccc(C(F)(F)F)cc2)C=C(C(=O)N2CCN(Cc3ccccc3)CC2)O1)NO | inactive | inactive | inactive
21 | NCc1cc(-c2ccccc2Cl)on1 | inactive | inactive | inactive
22 | C[C@@H]1CN([C@H](C)CO)C(=O)c2cc(NS(=O)(=O)c3ccc(Cl)cc3)ccc2O[C@@H](C)CCCCO[C@H]1CN(C)S(=O)(=O)c1ccc(F)cc1 | inactive | active | inactive
23 | C[C@H]1CN([C@@H](C)CO)C(=O)c2cccc(NC(=O)c3cnccn3)c2O[C@@H]1CN(C)Cc1ccncc1 | inactive | inactive | inactive
24 | Cn1c(=O)c2c(ncn2C)n(C)c1=O | inactive | inactive | inactive
25 | CC(C)NC(=O)N(C)C[C@@H]1Oc2ccc(NS(=O)(=O)c3ccc(F)cc3)cc2CC(=O)N([C@H](C)CO)C[C@@H]1C | inactive | inactive | inactive
26 | C[C@H](NC(=O)C[C@@H]1CC[C@@H](NC(=O)CN2CCOCC2)[C@@H](CO)O1)c1ccccc1 | inactive | inactive | inactive
